# Test results reported in a collection of fitness landscapes (doi:10.1126/science.1257360).
# Some of the results follow.
# B1: PhoQ; a variant is named by its letters at X, in order, P23837 (parent)
# chain: MKKLLRLFFPLSLRVRFLLATAAVVLVLSLAYGMVALIGYSVSFDKTTFRLLRGESNLFYTLAKWENNKLHVELPENIDKQSPTMTLIYDENGQLLWAQRDVPWLMKMIQPDWLKSNGFHEIEADVNDTSLLLSGDHSIQQQLQEVREDDDDAEMTHSVAVNVYPATSRMPKLTIVVVDTIPVELKSSYMVWSWFIYVLSANLLLVIPLLWVAAWWSLRPIEALAKEVRELEEHNRELLNPATTRELTSLVRNLNRLLKSERERYDKYRTTLTDLTHSLKTPLXXLQXXLRSLRSEKMSVSDAEPVMLEQISRISQQIGYYLHRASMRGGTLLSRELHPVAPLLDNLTSALNKVYQRKGVNISLDISPEISFVGEQNDFVEVMGNVLDNACKYCLEFVEISARQTDEHLYIVVEDDGPGIPLSKREVIFDRGQRVDTLRPGQGVGLAVAREITEQYEGKIVAGESMLGGARMEVIFGRQHSAPKDE
# Variants of: B1
# Test: enrichment ratio after two sorts for PhoP signalling (ratio (wild type AVST 3.29)); higher = more functional
# Details: with PhoP (E. coli)
row,Variant,enrichment ratio
1,MAMG,2.41
2,WTCS,≤ 0.25
3,SVLQ,6.06
4,DNYP,≤ 0.25
5,TASQ,10.7
6,LIQF,≤ 0.25
7,GAAR,≤ 0.25
8,AAGA,≤ 0.25
9,HDTP,≤ 0.25
10,WRKR,≤ 0.25
11,THMH,13.2
12,QGST,4.41
13,DAFQ,≤ 0.25
14,ISCE,≤ 0.25
15,GAHM,≤ 0.25
16,YAME,≤ 0.25
17,NERN,≤ 0.25
18,IHPQ,≤ 0.25
19,MEMC,4.97
20,QHSG,≤ 0.25
21,RNLP,≤ 0.25
22,LMTK,≤ 0.25
23,YWFP,≤ 0.25
24,YRCY,≤ 0.25
25,QEIV,≤ 0.25

row,Variant,enrichment ratio
1,PGSM,≤ 0.25
2,PAYH,≤ 0.25
3,PPSF,≤ 0.25
4,VKMA,≤ 0.25
5,YDGN,≤ 0.25
6,TYCA,12.1
7,DWQM,≤ 0.25
8,LWYE,≤ 0.25
9,YHWI,≤ 0.25
10,PYGS,0.392
11,SIDP,≤ 0.25
12,MHVM,≤ 0.25
13,WDQG,≤ 0.25
14,MWSF,≤ 0.25
15,LLHG,≤ 0.25
16,EIDA,≤ 0.25
17,GDIV,8.68
18,FLWY,≤ 0.25
19,NTAQ,≤ 0.25
20,FRCM,≤ 0.25
21,QHMD,≤ 0.25
22,FESP,≤ 0.25
23,TALT,9.61
24,QQGI,≤ 0.25
25,RWIH,≤ 0.25

row,Variant,enrichment ratio
1,FIHD,≤ 0.25
2,VNRF,≤ 0.25
3,RKSH,≤ 0.25
4,LAGP,≤ 0.25
5,MSFT,2.91
6,RSNY,≤ 0.25
7,DPEC,≤ 0.25
8,LMAV,≤ 0.25
9,GCYV,≤ 0.25
10,HHHF,≤ 0.25
11,YTIE,≤ 0.25
12,YIFN,≤ 0.25
13,FYIR,≤ 0.25
14,TKEW,≤ 0.25
15,EACI,≤ 0.25
16,TGIK,≤ 0.25
17,GMHN,≤ 0.25
18,LKHS,≤ 0.25
19,TSYE,≤ 0.25
20,ENRV,≤ 0.25
21,QLSP,≤ 0.25
22,DFQF,≤ 0.25
23,IGDS,≤ 0.25
24,LMMT,≤ 0.25
25,DARA,≤ 0.25

row,Variant,enrichment ratio
1,KFKF,≤ 0.25
2,FWST,≤ 0.25
3,KCTM,≤ 0.25
4,ICYC,≤ 0.25
5,PFTD,≤ 0.25
6,WANW,≤ 0.25
7,HFFL,≤ 0.25
8,EVLL,≤ 0.25
9,YLQL,≤ 0.25
10,HFHI,≤ 0.25
11,HCIK,≤ 0.25
12,LRHG,≤ 0.25
13,IRMG,≤ 0.25
14,PYMA,≤ 0.25
15,GFGQ,≤ 0.25
16,PPRT,≤ 0.25
17,YDAL,≤ 0.25
18,GGAQ,≤ 0.25
19,HGCL,5.15
20,GRSE,≤ 0.25
21,SVML,8.53
22,NMHP,≤ 0.25
23,ITES,≤ 0.25
24,MFRK,≤ 0.25
25,DLWS,≤ 0.25

row,Variant,enrichment ratio
1,TRMP,≤ 0.25
2,WLHK,≤ 0.25
3,EMDY,≤ 0.25
4,RVVG,≤ 0.25
5,NQAA,≤ 0.25
6,TQLG,16.7
7,FSMK,≤ 0.25
8,MVVF,≤ 0.25
9,VGKE,≤ 0.25
10,EGML,≤ 0.25
11,RIVH,≤ 0.25
12,NMRP,≤ 0.25
13,TKPT,≤ 0.25
14,FSYW,≤ 0.25
15,ISHC,≤ 0.25
16,APAK,≤ 0.25
17,VREN,≤ 0.25
18,NMSG,≤ 0.25
19,YDGF,≤ 0.25
20,PNEK,≤ 0.25
21,NEFE,≤ 0.25
22,ETKC,≤ 0.25
23,AAAH,3.1
24,HLFT,≤ 0.25
25,FKTA,≤ 0.25

row,Variant,enrichment ratio
1,GFQH,≤ 0.25
2,LECD,≤ 0.25
3,QAFI,≤ 0.25
4,YGHY,≤ 0.25
5,LCNK,≤ 0.25
6,AMMC,≤ 0.25
7,KHAQ,≤ 0.25
8,GGYW,≤ 0.25
9,IPGY,≤ 0.25
10,MRMA,≤ 0.25
11,HDCG,≤ 0.25
12,HNKE,≤ 0.25
13,SGWP,≤ 0.25
14,VSDD,≤ 0.25
15,HPSK,≤ 0.25
16,DKHY,≤ 0.25
17,TYHT,≤ 0.25
18,PPIM,≤ 0.25
19,DVQP,≤ 0.25
20,KTVK,≤ 0.25
21,YEPW,≤ 0.25
22,SLTY,3.17
23,DQNM,≤ 0.25
24,GMNT,≤ 0.25
25,LACD,≤ 0.25

row,Variant,enrichment ratio
1,HKLC,≤ 0.25
2,DMIH,≤ 0.25
3,GSWV,≤ 0.25
4,VCAR,≤ 0.25
5,PHPN,≤ 0.25
6,PYED,≤ 0.25
7,FYAQ,≤ 0.25
8,WAVK,≤ 0.25
9,FRRR,≤ 0.25
10,TGAW,≤ 0.25
11,QPKW,≤ 0.25
12,KWHR,≤ 0.25
13,TQWL,7.95
14,AGFY,≤ 0.25
15,QMIN,≤ 0.25
16,WYMV,≤ 0.25
17,FFTF,≤ 0.25
18,TLET,≤ 0.25
19,ANKA,≤ 0.25
20,VQEE,≤ 0.25
21,VVAI,≤ 0.25
22,NTRE,≤ 0.25
23,TKYA,≤ 0.25
24,YMFV,≤ 0.25
25,NIKS,≤ 0.25

row,Variant,enrichment ratio
1,EVHQ,≤ 0.25
2,FDKE,≤ 0.25
3,HPLE,≤ 0.25
4,GLVC,2.33
5,VPRH,≤ 0.25
6,HFTT,≤ 0.25
7,VNKV,≤ 0.25
8,LCRC,≤ 0.25
9,DSTH,≤ 0.25
10,YGER,≤ 0.25
11,RGTY,≤ 0.25
12,FEHR,≤ 0.25
13,ANAG,0.473
14,DKPV,≤ 0.25
15,FVSQ,≤ 0.25
16,NRPM,≤ 0.25
17,SQQF,≤ 0.25
18,RLTE,≤ 0.25
19,VTNI,≤ 0.25
20,DNNC,≤ 0.25
